The chains are these.
B1: 71200049_71200440_1770_CDS_ENSMUSG00000031386_ENSMUST00000033761|mouse|control|control (ssRNA)
RNA: GGGAGUUCUACAGUCCGACGAUCAGGACCAGUCACUUUGAGAACAGCAGGGACACCUUGAGUCCUGGCUGCAGUGGGCACAGAAAUGGAGCUGCCUGGCACUGUCGGCAAGACCUGGAUGGUGGUUGUGCUUGGGGGUGCAGUCAACAGAGGAUUGAGCAUCA
B2: chr1:173703207:173703208:+_ENSG00000076321_ENST00000209884|hu_hu|FALSE|FALSE (ssRNA)
RNA: GGGAGUUCUACAGUCCGACGAUCAGCAGCUGGCAGAAGAGUCUGAACAUUGCCCUCUUCUACUGUUAUCUGGGAGGUAUACGCAAAGUCAAUCAGUAAUUCCAUAGCCCUCUCGUCAAUGUCUCGGAUCACUACUUCUGUCUGCAACAGAGGAUUGAGCAUCA
B3: chrX:71549762:71549763:+_ENSMUSG00000019087_ENSMUST00000019231|mus_mus|mus_mus_mus_hu_False|58_68 (ssRNA)
RNA: GGGAGUUCUACAGUCCGACGAUCAAACCCGUGUACUUCUUAUUGUUAGCACAACAUCACCAGAAAAAAAACAUAACAGCUAAGCUGGACAGACAGUUAAGUAGUACUUCCACACUCCCAAACUCAGGGAGCCCUAUAACCUUACAACAGAGGAUUGAGCAUCA
B4: 89385523_89385643_863_CDS_ENSMUSG00000031652_ENSMUST00000034074|mouse|control|control (ssRNA)
RNA: GGGAGUUCUACAGUCCGACGAUCUUCAUCUCUAGCACUACUCGGUCCUGUGGCAGCACUCUGUGUGUACUCUGGUGGCCGUACAUCUCCAACAGUAAUGACAUCAUCAUCUGUUUCAAACAGACUCUCUUCCCCUUGUGUGAGCAACAGAGGAUUGAGCAUCA
B5: chr2:207024631:207024632:+_ENSG00000114942_ENST00000392222|hu_mus|FALSE|FALSE (ssRNA)
RNA: GGGAGUUCUACAGUCCGACGAUCGGGGAGCUGUGCAAAAGCGGAGGACGAGAGCGCCGGGAGGCCGCGGCCAGCGCUGAGGGAAAAAAAGGACCCAGAGCGUCCGGAAAACUCCUUAUAUAGAGACGGAGGCGUUUCCCUCCGCAACAGAGGAUUGAGCAUCA
B6: chr2:30816663:30816664:-_ENSMUSG00000026849_ENSMUST00000028200|mus_hu|FALSE|FALSE (ssRNA)
RNA: GGGAGUUCUACAGUCCGACGAUCCCUCACACACAUUUUCACAUGUCUGUACUCCAAAGGCAGGAAGGGGAUAAAGUAAUCAAUGAGGUUUUUGUCGAUCAGUCCACUGUGCCACAGGCCACUGUGUUUAUUAUUGAAGACUCCCAACAGAGGAUUGAGCAUCA

These results are taken from publication PMC12136788.

The list shows a part of the results.

The assay concerns the target T1, UNK ZnF1-3 (human, UniProt Q9C0B0 31-174).
T1 sequence: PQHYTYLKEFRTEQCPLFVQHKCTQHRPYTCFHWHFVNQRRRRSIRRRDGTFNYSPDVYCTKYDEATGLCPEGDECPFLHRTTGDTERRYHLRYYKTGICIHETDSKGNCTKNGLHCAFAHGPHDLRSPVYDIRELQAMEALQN
Briefly: nsRBNS (natural sequence RNA bind-n-seq); RBNS binding buffer (assumed for nsRBNS): 25 mM Tris pH 7.5, 150 mM KCl, 3 mM MgCl2, 0.01% Triton X-100, 500 ug/ml BSA, 20 U/ml SUPERase-In, 4 C; UNK is unkempt and MSI1 is Musashi-1; names of the RNAs are library labels; protein concentration not given here; high values mean tight binding.
B1 had a binding signal of 0.999 enrichment R.
For B2 the value was 1.27 enrichment R; for B3, 1.4 enrichment R; for B4, 0.677 enrichment R.
For B5 the value was 2.12 enrichment R; for B6, 1.06 enrichment R.
